# Variants at the floor of the assay are shown more often than the library holds them.
# B1: TPR 5TU (parent)
# chain: GGAUCUUCUCGAUCUAACAAAAAAGACAAAUCUGCCACAAAGCUUGAGAGCAUCUUCGGAUGCAGAGGCGGCAGCCUUCGGUGGCGCGAUAGCGCCAACGUUCUCAACUAUGACACGCAAAACGCGUGCUCCGUUGAAUGGAGUUUAUCAUG
# Variants of: B1
# Test: polymerase ribozyme fitness, log enrichment relative to wild type (log ratio); higher = more active; in vitro selection for triplet polymerase activity
# Procedure, shortened: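 In triplicate, a single round of in vitro selection was run on each mutant library, PCR-built and transcribed, covering one subunit of a heterodimeric triplet polymerase ribozyme. Frozen incubation at −7 °C followed annealing with a biotinylated primer, partner subunit and triplets, and extended constructs were then gel-excised, streptavidin-captured and taken through RT-PCR. Fitness is the logarithm of genotype enrichment over wild-type enrichment, from inverse-variance-weighted replicate averages of Illumina-sequenced inputs and outputs. […] only genotypes with ≥10 input reads and ≥1 read per output were kept.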
row,Variant,polymerase ribozyme fitness (log ratio)
1,U45G G50A G62C G80A U90C C95A A106G,≤ -4.2
2,U45G G50C G62U C76A C93A A121U G126A,≤ -4.2
3,U45G G50C G81C C85A C118A,≤ -4.2
4,U45G G58A G92C U111G,≤ -4.2
5,U45G G59C G74A C93U A122G C129G U146C,≤ -4.2
6,U45G G59U C79U C125A A142G,≤ -4.2
7,U45G G67A U78C G86C G94A U135A,≤ -4.2
8,U45G G67U A89G U148G,≤ -4.2
9,U45G G68A C93A G100U U135G,≤ -4.2
10,U45G G74C U111A,≤ -4.2
11,U45G G84U A113U,-4.1
12,U45G G84U A142U U146G,≤ -4.2
13,U45G G92A A110U A119U G133C,≤ -4.2
14,U45G G94A A137G,-2.23
15,U45G G152A,-1.18
16,U45G U53A C85U,-1.63
17,U45G U53A U56C G84A C125U A137G G140U C149A,≤ -4.2
18,U45G U55A C76U C85G A97C C103U A119C G140A,≤ -4.2
19,U45G U56A C69A C96A C131U G136U,-3.1
20,U45G U56A G58U A60G A91U C105U A142C,≤ -4.2
21,U45G U78C G83U C108G C129U G133U A147U,≤ -4.2

row,Variant,polymerase ribozyme fitness (log ratio)
1,U45G U78G G94U A106G G126A G152U,≤ -4.2
2,U45G U90G C132U,≤ -4.2
3,G46A A47C C63G A91C G94C G126A,≤ -4.2
4,G46A A47C U53A C57U A107U G117A,≤ -4.2
5,G46A A47G C69U C85G C93A C108G C118U A120U G143A,≤ -4.2
6,G46A A47G G48A C76U G88U A98G,≤ -4.2
7,G46A A49C U61G G81U C87U,≤ -4.2
8,G46A A52C U139G,-3.91
9,G46A A60C C75U U82G G92C C116U G140A,≤ -4.2
10,G46A A64U C79U C131U,≤ -4.2
11,G46A A91G G136U,≤ -4.2
12,G46A A97U U109G A121G U135C,≤ -4.2
13,G46A C51G U56A G88U G141A,≤ -4.2
14,G46A C54A C76U G143A,≤ -4.2
15,G46A C54G C79G,≤ -4.2
16,G46A C54G G86U,≤ -4.2
17,G46A C54U G58A A73U C85U A138G,≤ -4.2
18,G46A C54U G86U C118U A119G,≤ -4.2
19,G46A C63A G88U G117C,≤ -4.2
20,G46A C69A,-3.61
21,G46A C76G C96U,≤ -4.2

row,Variant,polymerase ribozyme fitness (log ratio)
1,G46A C79U C93U C108U A121G C149U,≤ -4.2
2,G46A C85A A91C,≤ -4.2
3,G46A C87A A97U U139G A142G,≤ -4.2
4,G46A C93A C95A A107G U146A U148A,≤ -4.2
5,G46A C96U U101A,-2.59
6,G46A C103G,≤ -4.2
7,G46A G50A,-0.957
8,G46A G50C C87G A98G G136U,≤ -4.2
9,G46A G58A G59C G83A G124U A138G,≤ -4.2
10,G46A G58A G83C,-1.17
11,G46A G58C C85A C116G U134C U144A,≤ -4.2
12,G46A G59C G70U U78G G84C G140A,≤ -4.2
13,G46A G67A A91G C95A U102C,≤ -4.2
14,G46A G67A G86U,≤ -4.2
15,G46A G70A U78A C85U A91U C118U G136C,≤ -4.2
16,G46A G70U C85G,≤ -4.2
17,G46A G74C,≤ -4.2
18,G46A G80A A89G,≤ -4.2
19,G46A G80C G92U C103U,≤ -4.2
20,G46A G80C U82A C103G U144A,≤ -4.2
21,G46A G81A C85G C93U A106G U148C,≤ -4.2

row,Variant,polymerase ribozyme fitness (log ratio)
1,G46A G83A G92A C95G U127G G140A,≤ -4.2
2,G46A G83C U127C,≤ -4.2
3,G46A G83U C103A,≤ -4.2
4,G46A G84A,-2.74
5,G46A G84U C99A A110C C114U U146C,≤ -4.2
6,G46A G86C C118U A122U,-3.45
7,G46A G143C,-3.81
8,G46A U53G,-3.49
9,G46A U53G C93G G94U U127A,≤ -4.2
10,G46A U53G U135G A137G G141C,≤ -4.2
11,G46A U55A G58A C72U U145G,≤ -4.2
12,G46A U55A G67A C85U A91U C105A A106G A115G C116U U135G U148A,≤ -4.2
13,G46A U56A G58A G70U U77G C96U A107U C125U,≤ -4.2
14,G46A U56A G81A U82C C96U C125G A150U,≤ -4.2
15,G46A U56A U82C C93A A107G C125U G136U,≤ -4.2
16,G46A U82C C95U C125G,-1.73
17,G46A U135G,-3.27
18,G46C A47C A52G U82A A110U C118G A138U C149U A150C,≤ -4.2
19,G46C A49C G50A U53G C85A U130C,≤ -4.2
20,G46C A49C U53A G70C C79A C118A A119C C129G,≤ -4.2

# — the RNAGym collection of RNA variant scans (doi:10.1073/pnas.2313332121)
